According to the supplement of paper PMC3724861:
This is one part of the list.

test system: T1, Caupolican (Caup) homeodomain DNA-binding domain; assay: PBM E-score (8-mer, recovered from the published 9-mer minima) (E-score (dimensionless, -0.5 to 0.5)); Drosophila protein; higher = stronger relative binding preference, active = 0.31 or more
T1 sequence: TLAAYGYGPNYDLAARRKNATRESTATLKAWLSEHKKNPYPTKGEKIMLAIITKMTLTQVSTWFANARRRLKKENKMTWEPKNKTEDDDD
Procedure, shortened: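 Caup's homeodomain DNA-binding domain (residues 214-303) was made by in vitro transcription and translation and applied at 100 nM to custom-designed protein binding microarrays. Each value is an enrichment score that gives relative binding preference for a short DNA word, with higher meaning stronger. The 8-mer values were recovered from published 9-mer scores, each of which was the minimum of its two constituent 8-mer scores. A cutoff of 0.31 marks candidate sites.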

PBM E-score, active:
GCGTGTAC 0.367, CCATGTAA 0.404, AATCGTGT 0.324, GTACATTA 0.322, CAAGTACA 0.342, ACATATTC 0.329

PBM E-score, ≥ 0.0717:
AAGTTCAG

PBM E-score, ≥ -0.0404:
TCAGGCCA

PBM E-score, ≥ -0.0099:
ACTTCGCT

PBM E-score, ≥ 0.123:
AGATACCA

PBM E-score, ≥ 0.0596:
ACTCTCAT

PBM E-score, ≥ 0.172:
AGATATAT

PBM E-score, inactive:
CGCCTAAA -0.117, AAGATTTA 0.0578, GCAGCTAC -0.0618, CTCTAAAA -0.0754, CAAGTTAG 0.15, AGTACGTC 0.0445, CACGCAGC -0.107, ATAGATCG -0.0377, AATACTTG 0.234, GATTTCGC 0.0128, CCGTTGTA 0.168, CCACGCGC -0.239, GAGTTTCA -0.012, CCCAAACA 0.175, CGCGATTA -0.0066, AATATCGC 0.0218, ATTGATCA 0.137, AGTGACCC -0.123, CCGCCACA -0.0608, CTTTTTCC -0.0824, ACACTCTC 0.13, AGCGAAAC 0.0322, GCATCTCC -0.185, GGTAGAAA -0.107, CGCCAACC -0.228, AACACGTC 0.299, AGGGTATC -0.045, AACAACCT 0.243, CAAACTAA 0.132, AAGGATTC -0.0347, GCTCAGCC -0.128, GGGACCAA -0.126, ACTTGCCC -0.0451, AATATACT 0.155, CCTTACAA 0.156, AGTAGTAG 0.111, GAGGGGCC -0.183, CTCCGCCA -0.244, TATGGTGA 0.00674, CGATCCCG -0.131, AATCTATG 0.108, GATTTGAC 0.0669, CCAGCTGC -0.255, CTGTCGGC -0.141, AGCGTGGC -0.21, CATAGTTA 0.169, CGAAACCC -0.0886, ACACGCTG 0.229, ATAAGCTC -0.107, TACAACGA 0.267, CAATTTGA 0.0278, CGGAGGTC -0.162, CCCTGACA 0.133, CCCCGCGA -0.22, ATAGCCCA -0.0431, GAGGACAA 0.0656, CAAGTGTA 0.244, ACAATCCC -0.0374, AAGTTGGT 0.0109, ACAAGGAA 0.247, CTACTATA 0.0895, GCGCGCAA -0.126, GGGGGTTA -0.214, CGCCGTCC -0.205, CCGGGATA -0.0468, GTACCGGA 0.0226, AGTACTCA 0.0849, ACTAGAGA -0.0382, CCGGTCTC -0.109, AGCATGCG -0.0296, CGGGCGAC -0.187, AGTCGTGA 0.0171, CTATGTGC 0.0747, AGCAGAAC 0.0217, CGGGAATA 0.0503, CTTGGACC -0.0867, GGGGTTAC -0.13, ACGTTGGC -0.0739, CGTATTGC -0.0432, GGCGACCC -0.258, GACCATAC 0.00514, AGTTAAGA 0.131, CGCTGACC -0.175, AAACGCAG -0.0755, GACTGGTA 0.109, AGCACTTG -0.0253, CTAGCACC -0.0146, ACCTTCCC -0.167, CCACGGCA -0.142, AGTCATTG 0.121, AGTGTTAG 0.185, ATACCTTA 0.06, TAAGGCAA 0.014, CCGAACTC -0.125, AGTGCAGG -0.0932, ACAGGGAG -0.115, GGCTGTCA 0.0147, CCGTTGCC -0.134, CCCGGCGC -0.315, ACTGAAGA 0.0217, AGGGGGAG -0.354, AGCCGTTG 0.0406, AGAACCGG -0.0482, ATCCCCAG -0.0913, ACGCCTCC -0.175, AAATCCTA 0.0973, CACCGAAA 0.114, ATCTGCGG -0.116, ACCAATTG 0.0368, CTCACAGC -0.124, GCGCCTAA -0.114, ACTAACCA 0.169, CATAGGAG 0.101, ACCCGACG -0.229, AGAGATTA 0.06, GATCCGAC -0.0368, ACTCGGCT -0.162, AGTCCATA 0.0813, AATCTTAC 0.124, CGGCAGCC -0.2, GCAGACCC -0.251, CGTATTCC 0.0379, CATGGTGG 0.0166, AACTCGGA -0.00245, AGACGTCA -0.099, AAGCACAT 0.0518, CTTTCCAA -0.0212, AAGATGTC 0.244, AGTCTTAC 0.0905, ACGTCCGA -0.012, AGCTTGCA -0.0141, AAGTTTGA -0.0194, CACGAGCC -0.0732, TCACACAA 0.193, GAATCTGA 0.0979, AACGCACG -0.032, ACAATTTA 0.199, CTTCTGCA -0.104, GCGAACGA 0.00689, ACACCCTC -0.0435, ATGCGACA 0.25, GGCCGGCC -0.338, AATCCCGG -0.024, GGCAGCAA -0.0662, CTTGCGGC -0.228, CTCCAGGC -0.216, ATTATTCG 0.138, CGTAATAC 0.16, CCGCTGGA -0.183, ACCCCGTG -0.0583, GTAAGGAA 0.0866, CGAGCGAG 0.00691, TTAAAAAA 0.0678, GTAGCATA 0.143, AATTTAAC 0.155, CACACTAC 0.162, ATCCACGG -0.0445, GTCCCGTA 0.0198, CCGTATCC -0.0823, CATGTGCC 0.166, GCGTAACA 0.221, AATTTGCA -0.0111, GTCAAACA 0.253, CCCATGGC -0.258, CTCCTTCA -0.179, CAGGGGCA -0.0811, AGGGATAT -0.00275, ATAAACAA 0.254, CTCATGAA 0.0374, AGTTTGTG 0.0508, AGGTTGAC 0.0115, AAGGATTA 0.0924, CTAGTTAC 0.103, AACTTGCG -0.0904, ATCAGACA 0.215, CCGATCCA -0.0439, AATCGGCC -0.163, GGTGATTA 0.0603, AACGGGCT -0.179, ACCCTCCA -0.157, CATCAGGG -0.1, AGCAACCG -0.0428, GGCCCCAC -0.259, CTGACTTC -0.0831, CACGCTGG -0.0853, AAAGTTTC 0.0415, GGCAATGA 0.00568, CAGGTGAG -0.128, GAGTCGCA -0.0749, AAGGCATG 0.0377, AGGCGTAA -0.0182, CGCATACC 0.0193, ACTAGCAT 0.121, CAGACGGA -0.0614, AAACCTGT 0.206, AACGAAGC -0.0846, CGACACGA 0.286, CTCAATTA 0.0935, CCTTCTCC -0.187, CCAACGTC -0.1, ATCCTCAT -0.0316, GGTCCGCA -0.174, AGGCAGTC -0.167, CTAATAAG 0.0971, ACCTGCAT -0.0357, GTAATGCA 0.133, TCCCAAGA -0.0874, ACCTACAC 0.186, GACCGGCA -0.111, GTGATGAA 0.0845, ATGTCTTA 0.284, CCAGCTAA -0.0883
